Test results as given in the supplement of paper PMC4967469.
pIC50: −log10 of the molar value. IC50 is the fitted dose that halves viability relative to control wells, and lower means more sensitive; a fit beyond the top or the lowest dose is shown as a bound at that dose. AUC is the area under the same curve over the 256-fold range up to the top dose, as a fraction; the more sensitive the line, the further below 1. For part of these data: The top dose, if marked as inferred, was derived from the fitted curves, not read from the paper.

Columns and labels:
Assay in all cases: Viability of human cancer cell lines after 72 h of drug (GDSC screen)
Midostaurin = compound: CO[C@@H]1[C@H](N(C)C(=O)c2ccccc2)C[C@H]2O[C@]1(C)n1c3ccccc3c3c4c(c5c6ccccc6n2c5c31)C(=O)NC4 [Midostaurin]; details: top dose 0.512 µM; top dose inferred
Protocol: (§1)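 Human cancer cell lines in 384-well plates, medium with 10% serum, drug for 72 h over a 256-fold dose range (nine 2-fold or five 4-fold steps up to the top dose). Adherent lines were fixed and stained with the nucleic acid dye Syto60, suspension lines read with resazurin; signal relative to control wells, capped at 0 and 100%. One two-parameter sigmoid per drug and line, fitted in a mixed model over all curves with the slope shared within a line.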

Mitomycin C = compound: CO[C@@]12[C@H](COC(N)=O)C3=C(C(=O)C(C)=C(N)C3=O)N1C[C@@H]1N[C@@H]12 [Mitomycin C]; details: top dose 16 µM
Protocol: as §1

Bosutinib = compound: COc1cc(Nc2c(C#N)cnc3cc(OCCCN4CCN(C)CC4)c(OC)cc23)c(Cl)cc1Cl [Bosutinib]; details: top dose 2 µM
Protocol: as §1

NVP-BHG712 = compound: Cc1ccc(C(=O)Nc2cccc(C(F)(F)F)c2)cc1Nc1nc(-c2cccnc2)nc2c1cnn2C [NVP-BHG712]; details: top dose 10.24 µM; top dose inferred
Protocol: as §1

IOX2 = compound: O=C(O)CNC(=O)c1c(O)c2ccccc2n(Cc2ccccc2)c1=O [IOX2]; details: top dose 0.1 µM; top dose inferred
Protocol: as §1

Cell Line	AUC (Midostaurin)	pIC50 (Midostaurin)	AUC (Mitomycin C)	pIC50 (Mitomycin C)	AUC (Bosutinib)	pIC50 (Bosutinib)	AUC (NVP-BHG712)	pIC50 (NVP-BHG712)	AUC (IOX2)	pIC50 (IOX2)
DMS-273 (small cell lung carcinoma, adherent)	0.732	6.81	0.227	6.82	0.985	< 5.70	0.813	5.23	0.983	< 7.00
DOK (head and neck, adherent)	0.85	< 6.29	0.69	5.35	0.633	6.46	0.955	< 4.99	0.956	< 7.00
Detroit562 (head and neck, adherent)	0.906	< 6.29	0.236	6.75	0.94	< 5.70	0.976	< 4.99	0.987	< 7.00
DoTc2-4510 (cervix, adherent)	0.836	6.50	0.232	6.76	0.909	< 5.70	0.934	< 4.99	0.965	< 7.00
EBC-1 (lung squamous cell carcinoma, adherent)	0.892	< 6.29	0.205	6.93	0.963	< 5.70	0.97	< 4.99	0.981	< 7.00
ECC10 (stomach, suspension)	0.952	< 6.29	0.684	5.47	0.828	5.88	0.932	< 4.99	0.978	< 7.00
EFM-19 (breast, adherent)	0.692	6.83	0.604	5.65	0.945	< 5.70	0.859	< 4.99	0.974	< 7.00
EFM-192A (breast, adherent)	0.806	6.53	0.154	7.13	0.96	< 5.70	0.962	< 4.99	0.984	< 7.00
EFO-21 (ovary, adherent)	0.699	6.83	0.442	6.19	0.977	< 5.70	0.941	< 4.99	0.963	< 7.00
EFO-27 (ovary, adherent)	0.865	< 6.29	0.527	5.92	0.822	5.80	0.871	< 4.99	0.978	< 7.00
EGI-1 (biliary tract, adherent)	0.88	< 6.29	0.577	5.76	0.928	< 5.70	0.89	< 4.99	0.979	< 7.00
EN (endometrium, adherent)	0.894	< 6.29	0.683	5.43	0.976	< 5.70	0.898	< 4.99	0.976	< 7.00
EPLC-272H (lung squamous cell carcinoma, adherent)	0.907	< 6.29	0.226	6.85	0.869	< 5.70	0.902	< 4.99	0.976	< 7.00
ESS-1 (endometrium, adherent)	0.884	6.34	0.132	7.08	0.977	< 5.70	0.99	< 4.99	0.959	< 7.00
EW-7 (Ewing sarcoma, semi-adherent)	0.9	< 6.29	0.062	> 7.20	0.972	< 5.70	0.89	5.03	0.989	< 7.00
FADU (head and neck, adherent)	0.922	< 6.29	0.221	6.80	0.769	6.14	0.984	< 4.99	0.983	< 7.00
FTC-133 (thyroid, adherent)	0.975	< 6.29	0.426	6.21	0.956	< 5.70	0.986	< 4.99	0.985	< 7.00
FU97 (stomach, adherent)	0.915	< 6.29	0.545	5.88	0.956	< 5.70	0.915	< 4.99	0.976	< 7.00
FU-OV-1 (ovary, adherent)	0.977	< 6.29	0.867	< 4.80	0.966	< 5.70	0.859	< 4.99	0.974	< 7.00
G-292 Clone A141B1 (osteosarcoma, adherent)	0.551	7.32	0.955	< 4.80	0.972	< 5.70	0.958	< 4.99	0.967	< 7.00
G-361 (melanoma, adherent)	0.79	6.66	0.211	6.83	0.923	< 5.70	0.889	< 4.99	0.987	< 7.00
G-401 (kidney, adherent)	0.735	6.79	0.443	6.16	0.984	< 5.70	0.899	< 4.99	0.982	< 7.00
G-402 (soft tissue, adherent)	0.747	6.67	0.212	6.99	0.959	< 5.70	0.745	5.38	0.974	< 7.00
G-MEL (melanoma, adherent)	0.873	6.32	0.236	6.76	0.803	6.01	0.778	5.39	0.974	< 7.00
GMS-10 (glioma, adherent)	0.931	< 6.29	0.652	5.58	0.919	< 5.70	0.988	< 4.99	0.983	< 7.00
H4 (glioma, adherent)	0.744	6.80	0.051	> 7.20	0.818	5.95	0.932	< 4.99	0.983	< 7.00

Cell Line	AUC (Midostaurin)	pIC50 (Midostaurin)	AUC (Mitomycin C)	pIC50 (Mitomycin C)	AUC (Bosutinib)	pIC50 (Bosutinib)	AUC (NVP-BHG712)	pIC50 (NVP-BHG712)	AUC (IOX2)	pIC50 (IOX2)
H513 (mesothelioma, semi-adherent)	0.948	< 6.29	0.673	5.47	0.939	< 5.70	0.961	< 4.99	0.971	< 7.00
H2369 (mesothelioma, adherent)	0.857	6.36	0.528	5.92	0.761	6.14	0.984	< 4.99	0.977	< 7.00
H2373 (mesothelioma, adherent)	0.96	< 6.29	0.617	5.64	0.88	< 5.70	0.948	< 4.99	0.975	< 7.00
H2461 (mesothelioma, adherent)	0.897	< 6.29	0.619	5.64	0.96	< 5.70	0.977	< 4.99	0.928	< 7.00
H2595 (mesothelioma, adherent)	0.905	< 6.29	0.5	6.00	0.98	< 5.70	0.979	< 4.99	0.941	< 7.00
H2722 (mesothelioma, adherent)	0.849	6.30	0.695	5.40	0.935	< 5.70	0.956	< 4.99	0.982	< 7.00
H2731 (mesothelioma, adherent)	0.883	< 6.29	0.701	5.39	0.923	< 5.70	0.776	5.33	0.875	< 7.00
H2795 (mesothelioma, adherent)	0.828	6.51	0.702	5.44	0.844	5.85	0.877	5.00	0.831	7.21
H2869 (mesothelioma, adherent)	0.855	< 6.29	0.7	5.37	0.976	< 5.70	0.925	< 4.99	0.957	< 7.00
H3118 (head and neck, adherent)	0.853	6.34	0.271	6.68	0.535	6.80	0.822	5.17	0.981	< 7.00
HARA (lung squamous cell carcinoma, adherent)	0.925	< 6.29	0.454	6.13	0.762	6.08	0.946	< 4.99	0.98	< 7.00
HCC38 (breast, adherent)	0.854	6.34	0.425	6.21	0.986	< 5.70	0.956	< 4.99	0.98	< 7.00
HCC70 (breast, adherent)	0.947	< 6.29	0.475	6.07	0.987	< 5.70	0.937	< 4.99	0.979	< 7.00
HCC1143 (breast, adherent)	0.975	< 6.29	0.53	5.90	0.956	< 5.70	0.945	< 4.99	0.974	< 7.00
HCC1395 (breast, adherent)	0.786	6.57	0.495	6.01	0.944	< 5.70	0.967	< 4.99	0.976	< 7.00
HCC1419 (breast, adherent)	0.98	< 6.29	0.705	5.31	0.979	< 5.70	0.946	< 4.99	0.959	< 7.00
HCC1428 (breast, adherent)	0.947	< 6.29	0.672	5.50	0.971	< 5.70	0.988	< 4.99	0.969	< 7.00
HCC1500 (breast, adherent)	0.98	< 6.29	0.477	6.06	0.953	< 5.70	0.97	< 4.99	0.987	< 7.00
HCC1569 (breast, adherent)	0.9	< 6.29	0.447	6.16	0.977	< 5.70	0.946	< 4.99	0.978	< 7.00
HCC1937 (breast, adherent)	0.976	< 6.29	0.411	6.26	0.851	5.72	0.958	< 4.99	0.98	< 7.00
HCC1954 (breast, adherent)	0.98	< 6.29	0.576	5.78	0.931	< 5.70	0.984	< 4.99	0.978	< 7.00
HCC-15 (lung squamous cell carcinoma, adherent)	0.877	< 6.29	0.336	6.51	0.952	< 5.70	0.929	< 4.99	0.98	< 7.00
HCC-56 (large intestine, adherent)	0.956	< 6.29	0.301	6.57	0.958	< 5.70	0.864	5.03	0.974	< 7.00
HCC-78 (lung adenocarcinoma, adherent)	0.929	< 6.29	0.405	6.28	0.979	< 5.70	0.917	< 4.99	0.961	< 7.00
HCC-827 (lung adenocarcinoma, adherent)	0.834	6.39	0.689	5.43	0.421	7.13	0.936	< 4.99	0.983	< 7.00
